Test results taken from patent publication EP4491631A1 (Anaveon AG, dated 2025).

T1: IL-2R on murine splenocytes (mouse, UniProt P16297 27-539; P34902 23-369)
T1 sequence (looked up) 1: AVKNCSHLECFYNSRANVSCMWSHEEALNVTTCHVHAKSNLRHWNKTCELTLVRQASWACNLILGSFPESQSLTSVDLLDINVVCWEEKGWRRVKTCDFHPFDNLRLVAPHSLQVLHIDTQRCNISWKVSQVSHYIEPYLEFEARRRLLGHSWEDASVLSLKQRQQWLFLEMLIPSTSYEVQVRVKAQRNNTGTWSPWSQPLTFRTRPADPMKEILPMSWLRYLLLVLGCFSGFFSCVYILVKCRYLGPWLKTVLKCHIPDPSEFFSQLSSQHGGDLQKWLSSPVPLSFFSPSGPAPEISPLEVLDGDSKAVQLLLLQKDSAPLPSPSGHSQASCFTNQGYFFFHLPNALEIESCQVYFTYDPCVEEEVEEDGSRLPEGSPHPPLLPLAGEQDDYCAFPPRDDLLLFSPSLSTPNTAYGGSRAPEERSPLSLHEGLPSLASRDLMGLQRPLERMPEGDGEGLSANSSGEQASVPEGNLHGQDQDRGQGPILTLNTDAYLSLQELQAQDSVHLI
T1 sequence (looked up) 2: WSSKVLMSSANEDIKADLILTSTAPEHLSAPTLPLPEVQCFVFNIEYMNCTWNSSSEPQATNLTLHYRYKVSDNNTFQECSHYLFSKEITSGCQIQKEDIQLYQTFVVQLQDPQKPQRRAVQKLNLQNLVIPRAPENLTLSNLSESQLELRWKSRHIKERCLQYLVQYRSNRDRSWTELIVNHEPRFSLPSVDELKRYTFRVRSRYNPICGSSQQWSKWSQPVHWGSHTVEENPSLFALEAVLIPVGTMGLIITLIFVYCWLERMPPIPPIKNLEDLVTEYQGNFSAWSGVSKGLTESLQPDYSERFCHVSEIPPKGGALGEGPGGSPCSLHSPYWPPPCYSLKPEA


Biological target: T1, IL-2R on murine splenocytes
Test: cell-based or functional assay

EC50 CD8 cells (pSTAT5) [nM]	EC50 NK cells (pSTAT5) [nM]	EC50 Treg cells (pSTAT5) [nM]	Binder
16	1.9	16	EPK959 (other) heavy: QVQLVESGGGVVQPGRSLRLSCAASGYTFSSYLIEWVRQAPGKGLEWVAVINPGSGGTNYADSVKGRFTISADKSKNTAYLQMNSLRAEDTAVYYCARWRGDGYYAYFDVWGQGTTVTVSSASTKGPSVFPLAPSSKSTSGGTAALGCLVKDYFPEPVTVSWNSGALTSGVHTFPAVLQSSGLYSLSSVVTVPSSSLGTQTYICNVNHKPSNTKVDKRV[gap - human IgG1 Fc with changes] light: EIVLTQSPATLSVSPGERATLSCRASQSVSYNFHLRPRDLISNINVIVLELKGSETTFMCEYADETATIVEFLNRWITFSQSIISTLTPTSSSTKKTQLQLEHLLLDLQMILNGINNYKNPKLTRMLTFKFYMPKKATELKHLQCLEEELKPLEEVLNLAQSKGDSYMNWYQQKPGQAPRLLIYAASNLASGIPARFSGSGSGTEFTLTISSLQSEDAAVYYCQQSNEDPYTFGGGTKVEIKRTVAAPSVFIFPPSDEQLKSGTASVVCLLNNFYPREAKVQWKVDNALQSGNSQESVTEQDSKDSTYSLSSTLTLSKADYEKHKVYACEVTHQGLSSPVTKSFNRGEC
6.8	0.9	6.6	DRO069 (other) heavy: QVQLVESGGGVVQPGRSLRLSCAASGYTFSSYLIEWVRQAPGKGLEWVAVINPGSGGTNYADSVKGRFTISADKSKNTAYLQMNSLRAEDTAVYYCARWRGDGYYAYFDVWGQGTTVTVSSASTKGPSVFPLAPSSKSTSGGTAALGCLVKDYFPEPVTVSWNSGALTSGVHTFPAVLQSSGLYSLSSVVTVPSSSLGTQTYICNVNHKPSNTKVDKRV[gap - human IgG1 Fc with changes] light: EIVLTQSPATLSVSPGERATLSCRASQSVSYGGGNFHLRPRDLISNINVIVLELKGSETTFMCEYADETATIVEFLNRWITFSQSIISTLTPTSSSTKKTQLQLEHLLLDLQMILNGINNYKNPKLTRMLTFKFYMPKKATELKHLQCLEEELKPLEEVLNLAQSKGGGGDSYMNWYQQKPGQAPRLLIYAASNLASGIPARFSGSGSGTEFTLTISSLQSEDAAVYYCQQSNEDPYTFGGGTKVEIKRTVAAPSVFIFPPSDEQLKSGTASVVCLLNNFYPREAKVQWKVDNALQSGNSQESVTEQDSKDSTYSLSSTLTLSKADYEKHKVYACEVTHQGLSSPVTKSFNRGEC

More lines, now with the values behind:

Binder	EC50 CD8 cells (pSTAT5) [nM]	EC50 NK cells (pSTAT5) [nM]	EC50 Treg cells (pSTAT5) [nM]
FJC828 (other) heavy: EVQLVQSGAEVKKPGESLKISCKGSGYAFTNYLIEWVRQMPGKGLEWMGVINPGSGGTNYNEKFKGQVTISADKSISTAYLQWSSLKASDTAMYYCARWRGEGYYAYFDVWGQGTTVTVSSASTKGPSVFPLAPSSKSTSGGTAALGCLVKDYFPEPVTVSWNSGALTSGVHTFPAVLQSSGLYSLSSVVTVPSSSLGTQTYICNVNHKPSNTKVDKRV[gap - human IgG1 Fc with changes] light: AIRLTQSPSSFSASTGDRVTITCKASQSVDYGGGGNFHLRPRDLISNINVIVLELKGSETTFMCEYADETATIVEFLNRWITFSQSIISTLTPTSSSTKKTQLQLEHLLLDLQMILNGINNYKNPKLTRMLTFKFYMPKKATELKHLQCLEEELKPLEEVLNLAQSKGGGGSDSYMNWYQQKPGKAPKLLIYAASNLESGVPSRFSGSGSGTDFTLTISSLQSEDFATYYCQQSNEDPYTFGGGTKVEIKRTVAAPSVFIFPPSDEQLKSGTASVVCLLNNFYPREAKVQWKVDNALQSGNSQESVTEQDSKDSTYSLSSTLTLSKADYEKHKVYACEVTHQGLSSPVTKSFNRGEC	5.8	1.9	8.4
PGO345 (other) heavy: EVQLVQSGAEVKKPGESLKISCKGSGYAFTNYLIEWVRQMPGKGLEWMGVINPGSGGTNYNEKFKGQVTISADKSISTAYLQWSSLKASDTAMYYCARWRGEGYYAYFDVWGQGTTVTVSSASTKGPSVFPLAPSSKSTSGGTAALGCLVKDYFPEPVTVSWNSGALTSGVHTFPAVLQSSGLYSLSSVVTVPSSSLGTQTYICNVNHKPSNTKVDKRV[gap - human IgG1 Fc with changes] light: AIRLTQSPSSFSASTGDRVTITCKASQSVDYGGGGSGNFHLRPRDLISNINVIVLELKGSETTFMCEYADETATIVEFLNRWITFSQSIISTLTPTSSSTKKTQLQLEHLLLDLQMILNGINNYKNPKLTRMLTFKFYMPKKATELKHLQCLEEELKPLEEVLNLAQSKGGGGSGGDSYMNWYQQKPGKAPKLLIYAASNLESGVPSRFSGSGSGTDFTLTISSLQSEDFATYYCQQSNEDPYTFGGGTKVEIKRTVAAPSVFIFPPSDEQLKSGTASVVCLLNNFYPREAKVQWKVDNALQSGNSQESVTEQDSKDSTYSLSSTLTLSKADYEKHKVYACEVTHQGLSSPVTKSFNRGEC	6.6	2.3	7.6
XUB802 (other) heavy: EVQLVQSGAEVKKPGESLKISCKGSGYAFTNYLIEWVRQMPGKGLEWMGVINPGSGGTNYNEKFKGQVTISADKSISTAYLQWSSLKASDTAMYYCARWRGEGYYAYFDVWGQGTTVTVSSASTKGPSVFPLAPSSKSTSGGTAALGCLVKDYFPEPVTVSWNSGALTSGVHTFPAVLQSSGLYSLSSVVTVPSSSLGTQTYICNVNHKPSNTKVDKRV[gap - human IgG1 Fc with changes] light: AIRLTQSPSSFSASTGDRVTITCKASQSVDYGGGGSGGGGSGGGGSGGGGNFHLRPRDLISNINVIVLELKGSETTFMCEYADETATIVEFLNRWITFSQSIISTLTPTSSSTKKTQLQLEHLLLDLQMILNGINNYKNPKLTRMLTFKFYMPKKATELKHLQCLEEELKPLEEVLNLAQSKGGGGSGGGGSGGGGSGGGGSDSYMNWYQQKPGKAPKLLIYAASNLESGVPSRFSGSGSGTDFTLTISSLQSEDFATYYCQQSNEDPYTFGGGTKVEIKRTVAAPSVFIFPPSDEQLKSGTASVVCLLNNFYPREAKVQWKVDNALQSGNSQESVTEQDSKDSTYSLSSTLTLSKADYEKHKVYACEVTHQGLSSPVTKSFNRGEC	17.1	5.8	12.1
DRV470 (other) heavy: EVQLVQSGAEVKKPGESLKISCKGSGYAFTNYLIEWVRQMPGKGLEWMGVINPGSGGTNYNEKFKGQVTISADKSISTAYLQWSSLKASDTAMYYCARWRGEGYYAYFDVWGQGTTVTVSSASTKGPSVFPLAPSSKSTSGGTAALGCLVKDYFPEPVTVSWNSGALTSGVHTFPAVLQSSGLYSLSSVVTVPSSSLGTQTYICNVNHKPSNTKVDKRV[gap - human IgG1 Fc with changes] light: AIRLTQSPSSFSASTGDRVTITCKASQSVDYGGGGSGGGGSGGGNFHLRPRDLISNINVIVLELKGSETTFMCEYADETATIVEFLNRWITFSQSIISTLTPTSSSTKKTQLQLEHLLLDLQMILNGINNYKNPKLTRMLTFKFYMPKKATELKHLQCLEEELKPLEEVLNLAQSKGGGGSGGGGSGGGGDSYMNWYQQKPGKAPKLLIYAASNLESGVPSRFSGSGSGTDFTLTISSLQSEDFATYYCQQSNEDPYTFGGGTKVEIKRTVAAPSVFIFPPSDEQLKSGTASVVCLLNNFYPREAKVQWKVDNALQSGNSQESVTEQDSKDSTYSLSSTLTLSKADYEKHKVYACEVTHQGLSSPVTKSFNRGEC	7.9	2.4	10.3
GYG794 (other) heavy: QVQLVESGGGVVQPGRSLRLSCAASGYTFSSYLIEWVRQAPGKGLEWVAVINPGSGGTNYADSVKGRFTISADKSKNTAYLQMNSLRAEDTAVYYCARWRGDGYYAYFDVWGQGTTVTVSSASTKGPSVFPLAPSSKSTSGGTAALGCLVKDYFPEPVTVSWNSGALTSGVHTFPAVLQSSGLYSLSSVVTVPSSSLGTQTYICNVNHKPSNTKVDKRV[gap - human IgG1 Fc with changes] light: EIVLTQSPATLSVSPGERATLSCRASQSVSYGGNFHLRPRDLISNINVIVLELKGSETTFMCEYADETATIVEFLNRWITFSQSIISTLTPTSSSTKKTQLQLEHLLLDLQMILNGINNYKNPKLTRMLTFKFYMPKKATELKHLQCLEEELKPLEEVLNLAQSKGGGDSYMNWYQQKPGQAPRLLIYAASNLASGIPARFSGSGSGTEFTLTISSLQSEDAAVYYCQQSNEDPYTFGGGTKVEIKRTVAAPSVFIFPPSDEQLKSGTASVVCLLNNFYPREAKVQWKVDNALQSGNSQESVTEQDSKDSTYSLSSTLTLSKADYEKHKVYACEVTHQGLSSPVTKSFNRGEC	18.6	1.5	4.8
ECV200 (other) heavy: QVQLVESGGGVVQPGRSLRLSCAASGYTFSSYLIEWVRQAPGKGLEWVAVINPGSGGTNYADSVKGRFTISADKSKNTAYLQMNSLRAEDTAVYYCARWRGDGYYAYFDVWGQGTTVTVSSASTKGPSVFPLAPSSKSTSGGTAALGCLVKDYFPEPVTVSWNSGALTSGVHTFPAVLQSSGLYSLSSVVTVPSSSLGTQTYICNVNHKPSNTKVDKRV[gap - human IgG1 Fc with changes] light: EIVLTQSPATLSVSPGERATLSCRASQSVSYGGGGSGNFHLRPRDLISNINVIVLELKGSETTFMCEYADETATIVEFLNRWITFSQSIISTLTPTSSSTKKTQLQLEHLLLDLQMILNGINNYKNPKLTRMLTFKFYMPKKATELKHLQCLEEELKPLEEVLNLAQSKGGGGSGGDSYMNWYQQKPGQAPRLLIYAASNLASGIPARFSGSGSGTEFTLTISSLQSEDAAVYYCQQSNEDPYTFGGGTKVEIKRTVAAPSVFIFPPSDEQLKSGTASVVCLLNNFYPREAKVQWKVDNALQSGNSQESVTEQDSKDSTYSLSSTLTLSKADYEKHKVYACEVTHQGLSSPVTKSFNRGEC	6.9	0.9	3.7
